Data: US20210388337A1 (CARNEGIE MELLON UNIVERSITY, published 2021)

B1: Avidin-pCBMA170 (other, UniProt P02701 25-152, looked up)
chain: ARKCSLTGKWTNDLGSNMTIGAVNSRGEFTGTYITAVTATSNEIKESPLHGTQNTINKRTQPTFGFTVNWKFSESTTVFTGQCFIDRNGKEVLKTMWLLRSSVNDIGDDWKATRVGINIFTRLRTQKE
modifications: pCBMA (DP 170) grown by ATRP from single-headed initiator on an average of 8 amine groups per avidin monomer, including K45, K71 and K111
notes: mature; Low-density protein-polymer conjugate, single-headed ATRP initiator; also called low-density avidin-pCBMA170
B2: Native avidin (other, UniProt P02701 25-152, looked up)
chain: ARKCSLTGKWTNDLGSNMTIGAVNSRGEFTGTYITAVTATSNEIKESPLHGTQNTINKRTQPTFGFTVNWKFSESTTVFTGQCFIDRNGKEVLKTMWLLRSSVNDIGDDWKATRVGINIFTRLRTQKE
notes: mature; Purified from egg white; Form 'mature' inferred from purification from the natural source; also called avidin from egg white
B3: Avidin-pCBMA121 (other, UniProt P02701 25-152, looked up)
chain: ARKCSLTGKWTNDLGSNMTIGAVNSRGEFTGTYITAVTATSNEIKESPLHGTQNTINKRTQPTFGFTVNWKFSESTTVFTGQCFIDRNGKEVLKTMWLLRSSVNDIGDDWKATRVGINIFTRLRTQKE
modifications: pCBMA (DP 121) grown by ATRP from single-headed initiator on an average of 8 amine groups per avidin monomer, including K45, K71 and K111
notes: mature; Low-density protein-polymer conjugate, single-headed ATRP initiator; also called low-density avidin-pCBMA121
B4: Avidin-pCBMA232 (other, UniProt P02701 25-152, looked up)
chain: ARKCSLTGKWTNDLGSNMTIGAVNSRGEFTGTYITAVTATSNEIKESPLHGTQNTINKRTQPTFGFTVNWKFSESTTVFTGQCFIDRNGKEVLKTMWLLRSSVNDIGDDWKATRVGINIFTRLRTQKE
modifications: pCBMA (DP 232) grown by ATRP from single-headed initiator on an average of 8 amine groups per avidin monomer, including K45, K71 and K111
notes: mature; Low-density protein-polymer conjugate, single-headed ATRP initiator; also called low-density avidin-pCBMA232
B5: Avidin-pCBMA56 (other, UniProt P02701 25-152, looked up)
chain: ARKCSLTGKWTNDLGSNMTIGAVNSRGEFTGTYITAVTATSNEIKESPLHGTQNTINKRTQPTFGFTVNWKFSESTTVFTGQCFIDRNGKEVLKTMWLLRSSVNDIGDDWKATRVGINIFTRLRTQKE
modifications: pCBMA (DP 56) grown by ATRP from single-headed initiator on an average of 8 amine groups per avidin monomer, including K45, K71 and K111
notes: mature; Low-density protein-polymer conjugate, single-headed ATRP initiator, 0.29 polymer chains/nm^2; also called low-density avidin-pCBMA56; avidin-pCBMA50 (target DP)
B6: Avidin-pCBMA109 (other, UniProt P02701 25-152, looked up)
chain: ARKCSLTGKWTNDLGSNMTIGAVNSRGEFTGTYITAVTATSNEIKESPLHGTQNTINKRTQPTFGFTVNWKFSESTTVFTGQCFIDRNGKEVLKTMWLLRSSVNDIGDDWKATRVGINIFTRLRTQKE
modifications: two pCBMA chains (DP 109) grown by ATRP from each double-headed initiator, an average of 7 initiators per avidin monomer, including K45, K71 and K111
notes: mature; High-density protein-polymer conjugate, double-headed ATRP initiator; also called high-density avidin-pCBMA109
B7: Avidin-pCBMA152 (other, UniProt P02701 25-152, looked up)
chain: ARKCSLTGKWTNDLGSNMTIGAVNSRGEFTGTYITAVTATSNEIKESPLHGTQNTINKRTQPTFGFTVNWKFSESTTVFTGQCFIDRNGKEVLKTMWLLRSSVNDIGDDWKATRVGINIFTRLRTQKE
modifications: two pCBMA chains (DP 152) grown by ATRP from each double-headed initiator, an average of 7 initiators per avidin monomer, including K45, K71 and K111
notes: mature; High-density protein-polymer conjugate, double-headed ATRP initiator; also called high-density avidin-pCBMA152
B8: Avidin-pCBMA58 (other, UniProt P02701 25-152, looked up)
chain: ARKCSLTGKWTNDLGSNMTIGAVNSRGEFTGTYITAVTATSNEIKESPLHGTQNTINKRTQPTFGFTVNWKFSESTTVFTGQCFIDRNGKEVLKTMWLLRSSVNDIGDDWKATRVGINIFTRLRTQKE
modifications: two pCBMA chains (DP 58) grown by ATRP from each double-headed initiator, an average of 7 initiators per avidin monomer, including K45, K71 and K111
notes: mature; High-density protein-polymer conjugate, double-headed ATRP initiator, 0.5 chains/nm^2; also called high-density avidin-pCBMA58
B9: Avidin-pCBMA182 (other, UniProt P02701 25-152, looked up)
chain: ARKCSLTGKWTNDLGSNMTIGAVNSRGEFTGTYITAVTATSNEIKESPLHGTQNTINKRTQPTFGFTVNWKFSESTTVFTGQCFIDRNGKEVLKTMWLLRSSVNDIGDDWKATRVGINIFTRLRTQKE
modifications: two pCBMA chains (DP 182) grown by ATRP from each double-headed initiator, an average of 7 initiators per avidin monomer, including K45, K71 and K111
notes: mature; High-density protein-polymer conjugate, double-headed ATRP initiator; also called high-density avidin-pCBMA182

Biological target: T1, Biotin-histone
T1 construct: also called histone-bio; biotinylated histone
Assay: stopped-flow tryptophan fluorescence, avidin 0.5 µM, biotin-protein 5.0 µM
Procedure: (§1) Pullulan standards (PSS-Polymer Standards Service—USA Inc., Amherst, Mass.) were used for calibration. Matrix-Assisted Laser Desorption Ionization Time-of-Flight Spectrometry (MALDI-ToF MS) was performed with a Perseptive Biosystems Voyager Elite MALDI-TOF spectrometer. Dynamic Light Scattering (DLS) data were collected on a Malvern Zetasizer nano-ZS. The concentration of the sample solution was kept at 1.0 mg/mL. The hydrodynamic diameter of samples was measured three times (5 run to each measurement, reported as number distribution) in 0.1 M sodium phosphate, pH 8. Biotin and bio-PEG binding kinetics were measured using a stopped-flow spectrometer with fluorescence detection (Applied Photophysics SX20). […] Instrument permitted to collect 1000 data points throughput the reaction (0.1-450 s). Bio-pro binding kinetics were obtained using a stopped-flow accessory mounted on PTI QuantaMaster-400 fluorometer (Horiba Instruments Inc.). The excitation wavelength was set to 295 nm and emission wavelength was monitored at 340 nm. Ten data points per second were collected and data were acquired using FelixGX software (Horiba Instruments Inc.). For all experiments, avidin concentration was 0.5 μM (final) and biotin, bio-PEG or bio-pro concentrations were held at 5.0 μM (final). Reactions were initiated by mixing equal volumes of avidin with its substrates in 0.1 M phosphate buffer, pH 8. Fluorescence was measured in volts.
Data were fit to single exponential functions using F(t) = F_{∞} − ΔFexp(−kobst) equation, where, kobs is the observed first-order rate constant, F_{∞} is the final value of fluorescence and ΔF is the amplitude. In case of native avidin kinetics the data were fit to single exponential functions using F(t) = F_{∞} + ΔFexp(−kobst) equation, where, kobs is the observed first-order rate constant, F_{∞} is the final value of fluorescence and ΔF is the amplitude.

First: B1
Second: B2
The “k (kobs, observed first-order rate constant)” value of the first is 64-fold lower: 0.245 s⁻¹ for the first, 15.7 s⁻¹ for the second.

B3 and B4 are within 1.5-fold of each other in “k (kobs, observed first-order rate constant)” value: 0.252 s⁻¹ for the first, 0.231 s⁻¹ for the second.

With B5 the “k (kobs, observed first-order rate constant)” value was 0.282 s⁻¹.

Biological target: T1, Biotin-histone
Assay: as above
Remark: another data set of the same source
Procedure: as §1, with “UV-VIS spectra were obtained and used for protein concentration determination using a UV-VIS spectrometer (Lambda 2, PerkinElmer). Melting points (mp) were measured with a Laboratory Devices Mel-Temp. Number and weight average molecular weights (Mₙ and Mw) and the polydispersity index (Mw/Mₙ) were estimated by gel permeation chromatography (GPC) on a Water 2695 Series with a data processor, equipped with three columns (Waters Ultrahydrogel Linier, 500 and 250), using Dulbecco's Phosphate Buffered Saline with 0.02 wt % sodium azide as an eluent at flow rate 1.0 mL/min, with detection by a refractive index (RI) detector. Pullulan” for “Pullulan”
Data were fit to single exponential functions using F(t) = F_{∞} − ΔFexp(−kobst) equation, where, kobs is the observed first-order rate constant, F_{∞} is the final value of fluorescence and ΔF is the amplitude.

Going from B2 to B6, the “k (kobs, observed first-order rate constant)” value falls from 15.7 s⁻¹ to 0.035 s⁻¹ (450-fold).

B7 and B8 are within 1.5-fold of each other in “k (kobs, observed first-order rate constant)” value: 0.034 s⁻¹ for the first, 0.039 s⁻¹ for the second.

B9 was tested, and the “k (kobs, observed first-order rate constant)” value was 0.032 s⁻¹.
